Reference: the supplement of paper PMC10369915
The list shows a part of the results. No stated cut-off is given here; in the data, active = 3.2 or more and inactive = the rest. Only a few entries rise above the background.

Columns and labels:
Experiment in all cases: enrichment score (SH2-bound / input frequency) (ratio); bacterial display of known human phosphotyrosine sites (pTyr-Var adds point mutants) read by sequencing; higher = stronger binding; tyrosines were phosphorylated by kinases first
Details in all cases: peptide library: pTyr-Var
SHP2 C-SH2 domain E139D = target: SHP2 C-SH2 domain E139D
[1] = target: SHP2 C-SH2 domain wild-type
SHP2 N-SH2 domain L43F = target: SHP2 N-SH2 domain L43F
SHP2 N-SH2 domain T42A = target: SHP2 N-SH2 domain T42A
SHP2 N-SH2 domain T52S = target: SHP2 N-SH2 domain T52S
[2] = target: SHP2 N-SH2 domain wild-type
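Further: displayed peptides selected on beads carrying the immobilized SH2 domain, with library peptides lacking any tyrosine serving as negative controls.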

Row | Binder | enrichment score (SHP2 C-SH2 domain E139D) | enrichment score [1] | enrichment score (SHP2 N-SH2 domain L43F) | enrichment score (SHP2 N-SH2 domain T42A) | enrichment score (SHP2 N-SH2 domain T52S) | enrichment score [2]
1 | VGAKTYKMSMA [CPS1_Y309_A304V] | inactive: 0.734 | inactive: 0.937 | inactive: 0.737 | inactive: 0.813 | inactive: 0.604 | inactive: 0.727
2 | SENAFYLSPDI [COL6A3_Y2827] | inactive: 0.751 | inactive: 0.726 | inactive: 0.741 | inactive: 0.683 | inactive: 0.571 | inactive: 0.581
3 | PAIYTYDEYKK [COL8A2_Y648_T645I] | inactive: 0.833 | inactive: 1 | inactive: 0.97 | inactive: 0.815 | inactive: 0.687 | inactive: 0.807
4 | MILSAYALGGL [CPS1_Y590_R587L] | inactive: 1.27 | inactive: 1.59 | inactive: 1.48 | inactive: 1.33 | inactive: 1.36 | inactive: 1.49
5 | FSLPAYMDRRD [COX4I1_Y38] | inactive: 0.862 | inactive: 0.688 | inactive: 0.903 | inactive: 0.691 | inactive: 1.08 | inactive: 0.919
6 | LDTSQYFRLFN [CPT2_Y217_M214T] | inactive: 0.776 | inactive: 1.49 | inactive: 0.784 | inactive: 0.997 | inactive: 0.733 | inactive: 0.796
7 | GVLKEYGGKVL [CPS1_Y529_V531G] | inactive: 0.947 | inactive: 0.945 | inactive: 1.11 | inactive: 0.899 | inactive: 0.969 | inactive: 1.2
8 | VTPVMYTYDEY [COL10A1_Y623_G618V] | inactive: 0.979 | inactive: 0.911 | inactive: 2.99 | inactive: 1.15 | inactive: 2.56 | inactive: 0.974
9 | WKEIEYEVVPD [CPS1_Y634_R638P] | inactive: 0.574 | inactive: 0.621 | inactive: 0.483 | inactive: 0.466 | inactive: 0.569 | inactive: 0.571
10 | PAIFTYDEFKK [COL8A2_Y648_T645I_YF] | inactive: 0.775 | inactive: 0.817 | inactive: 0.881 | inactive: 0.802 | inactive: 1.05 | inactive: 1.22
11 | DDIPLYLKGGV [COX7A2_Y44_E40D] | inactive: 0.705 | inactive: 0.784 | inactive: 0.662 | inactive: 0.643 | inactive: 0.645 | inactive: 0.735
12 | GVLKEYVVKVL [CPS1_Y529_G530V] | inactive: 1.59 | inactive: 1.24 | inactive: 1.3 | inactive: 1.17 | inactive: 1.34 | inactive: 1.59
13 | EPSLDYMVTKI [CPS1_Y768] | inactive: 0.677 | inactive: 0.726 | inactive: 0.746 | inactive: 0.678 | inactive: 0.826 | inactive: 1.19
14 | GQLIVYAPPEW [CNTN6_Y315_F314V] | inactive: 0.94 | inactive: 0.906 | inactive: 0.954 | inactive: 2.01 | inactive: 0.751 | inactive: 0.864
15 | GVLKEYGEKVL [CPS1_Y529_V531E] | inactive: 0.935 | inactive: 0.571 | inactive: 0.701 | inactive: 0.617 | inactive: 0.721 | inactive: 0.81
16 | TARWEYMHSPS [CPOX_Y429] | inactive: 0.625 | inactive: 0.819 | inactive: 0.528 | inactive: 1.13 | inactive: 0.824 | inactive: 0.77
17 | DGSALYTGSAL [COL6A3_Y524] | inactive: 0.704 | inactive: 0.788 | inactive: 0.557 | inactive: 0.498 | inactive: 0.761 | inactive: 0.7
18 | SENAFYLSPHI [COL6A3_Y2827_D2831H] | inactive: 0.926 | inactive: 0.769 | inactive: 0.894 | inactive: 0.681 | inactive: 0.92 | inactive: 0.879
19 | MICSAYALGGL [CPS1_Y590_R587C] | inactive: 0.87 | inactive: 1.04 | inactive: 1.15 | inactive: 0.751 | inactive: 0.768 | inactive: 0.84

Row | Binder | enrichment score (SHP2 C-SH2 domain E139D) | enrichment score [1] | enrichment score (SHP2 N-SH2 domain L43F) | enrichment score (SHP2 N-SH2 domain T42A) | enrichment score (SHP2 N-SH2 domain T52S) | enrichment score [2]
20 | FVHDNYVIRRT [CPS1_Y1450] | inactive: 0.361 | inactive: 0.388 | inactive: 0.399 | inactive: 0.329 | inactive: 0.427 | inactive: 0.548
21 | RLASVYTKRCS [CPT2_Y508_P504L] | inactive: 0.324 | inactive: 0.476 | inactive: 0.607 | inactive: 0.424 | inactive: 0.41 | inactive: 0.536
22 | CLAKMYFSAVD [CP_Y539_YF] | inactive: 1.25 | inactive: 0.965 | inactive: 1.05 | inactive: 1.02 | inactive: 1.23 | inactive: 1.13
23 | LNPDGYKKAFE [CPXM2_Y427_E428K_YF] | inactive: 0.397 | inactive: 0.894 | inactive: 0.747 | inactive: 1.02 | inactive: 0.78 | inactive: 0.709
24 | NCLREYVAGRF [CRB1_Y711] | inactive: 0.898 | inactive: 1.08 | inactive: 1.1 | inactive: 0.779 | inactive: 0.85 | inactive: 1.11
25 | KVPAIYGVDTR [CPS1_Y162] | inactive: 0.814 | inactive: 0.758 | inactive: 0.664 | inactive: 0.615 | inactive: 0.93 | inactive: 0.862
26 | LEVPLYKNGVK [CPS1_Y1069_A1065E] | inactive: 0.813 | inactive: 0.887 | inactive: 0.798 | inactive: 0.824 | inactive: 0.519 | inactive: 0.961
27 | GTPVMYTYDEY [COL10A1_Y623] | inactive: 0.805 | inactive: 0.882 | inactive: 1.18 | inactive: 0.843 | inactive: 0.832 | inactive: 0.957
28 | KSLFHHRQFSA [CPS1_Y1491_Y1491H_YF] | inactive: 0.57 | inactive: 0.567 | inactive: 0.61 | inactive: 0.517 | inactive: 0.676 | inactive: 0.568
29 | HEEKVYLSRGD [CRACR2A_Y141] | inactive: 0.723 | inactive: 0.671 | inactive: 0.792 | inactive: 0.76 | inactive: 0.685 | inactive: 0.575
30 | IEKLTYIDEWF [CPS1_Y872_K875E] | inactive: 0.901 | inactive: 0.757 | inactive: 1.16 | inactive: 1 | inactive: 1.01 | inactive: 1
31 | LENSTYQYIRV [CRB1_Y760] | inactive: 0.737 | inactive: 2.89 | inactive: 1.12 | active: 4.72 | inactive: 1.12 | inactive: 0.93
32 | KYGTNYRVGSS [CPO_Y278] | inactive: 0.877 | inactive: 0.792 | inactive: 0.844 | inactive: 0.668 | inactive: 0.678 | inactive: 0.89
33 | KGERGYPGTLG [COL4A1_Y348_P352L] | inactive: 0.578 | inactive: 0.517 | inactive: 0.744 | inactive: 0.575 | inactive: 0.556 | inactive: 0.637
34 | CKSVHYDLVFL [COL22A1_Y37] | inactive: 0.93 | inactive: 1.33 | inactive: 0.988 | inactive: 1.38 | inactive: 0.999 | inactive: 1.26
35 | RPASVYTKRCS [CPT2_Y508] | inactive: 0.275 | inactive: 0.338 | inactive: 0.282 | inactive: 0.38 | inactive: 0.504 | inactive: 0.325
36 | KSLFHYRQFSA [CPS1_Y1491_YF] | inactive: 0.63 | inactive: 0.533 | inactive: 0.457 | inactive: 0.437 | inactive: 0.383 | inactive: 0.467
37 | AKAEIYEMRPL [COX10_Y97] | inactive: 0.932 | inactive: 0.778 | inactive: 0.985 | inactive: 0.758 | inactive: 0.875 | inactive: 0.955
